# According to the RNAGym collection of RNA variant scans (doi:10.1073/pnas.2313332121):
# Variants at the floor of the assay are shown more often than the library holds them.
# B1: TPR 5TU (parent)
# chain: GGAUCUUCUCGAUCUAACAAAAAAGACAAAUCUGCCACAAAGCUUGAGAGCAUCUUCGGAUGCAGAGGCGGCAGCCUUCGGUGGCGCGAUAGCGCCAACGUUCUCAACUAUGACACGCAAAACGCGUGCUCCGUUGAAUGGAGUUUAUCAUG
# Variants of: B1
# Assay: polymerase ribozyme fitness, log enrichment relative to wild type (log ratio); higher = more active; in vitro selection for triplet polymerase activity
# How it was run: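 Only genotypes with ≥10 input reads and ≥1 read per output were kept after Illumina sequencing of input and output libraries. These libraries were PCR-built, transcribed mutants of each subunit of a heterodimeric triplet polymerase ribozyme, each put through one triplicate in vitro selection round with frozen incubation at −7 °C, gel excision of extended constructs, streptavidin-bead capture and RT-PCR. Fitness is a logarithmic ratio of genotype enrichment to wild-type enrichment, from inverse-variance-weighted replicate averages, with the logarithm in base 2.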
row,Variant,polymerase ribozyme fitness (log ratio)
1,GGAUCUUCUCGAUAUUACAAAAAAGACAAGUCUGCCACAAAGCUUGAGAGCAUCUACGGAUGCAGCGGCGGCAGCCUUCGGUGGCGCGUUAGCGCCAACGUUCUCAACUAUGACACGCAAAACGCGUGCUCCGUUGAAUGGAGUUUAUCAUG [C14A A16U A30G U56A A66C A89U],≤ -4.2
2,GGAUCUUCUCGAUAUAACAAAAAAGACAAAUCUGCCACAAUGCUUGAGAGCAUCUUCGGAUGCAGAGGCGGCAGCGUUCGGUGGCGAGAUACCGCCAACGUUCUCAACUAUGACACGCAAAACGCGUGCUCCGUUGAAUGGAGGUUAUCAUG [C14A A41U C76G C87A G92C U144G],≤ -4.2
3,GGAUCUUCUCGAGCUAACAAAAAAGACAAAUCUGCCACAAAGCUUGAGAGCAUCUACGGAUGCAGAGGCGGCAGCGUUCGGUGGCGCGAUUGUGCCAACGUUCUCAACUAUGACACGCAAAACGCGUGCUCCGUUGAAUGGAGUUUAUCAUG [U13G U56A C76G A91U C93U],≤ -4.2
4,GGAUCUUCUCGAUAUAACUAAAAAGACAAAUCUGCCACAAAGCUUGAGAGCAUCUGCGGAUGCAGAGGCGGCAGCCUUCGGUGGCUCGAUAGCGCCAACGUUCUCAACUAUGACAGGCAAAACGUGUGCUCCAUUGAAUGGACUUUAUCAUG [C14A A19U U56G G86U C116G C125U G133A G143C],≤ -4.2
5,GGAUCUUCUCGAGCUAACAAAAAAGACAAAGCUGCCACAAAGCUUUAGAGCAUCUUCGGAUGCAGAGGCGGCAGCCUUCGGUGGCGCGAUAGCGUCAACGUUCUCAACUAUGACACGCAAAACGCGUACUCCGUUGAAUGGAGUUUAUCAUG [U13G U31G G46U C95U G128A],≤ -4.2
6,GGAUCUUCUCGAUAUAACAAAAAAGACAAAUCUGCCACAAAGCUUGAGAGCAUCUUCGGAUGCAGAGGCGGCAGCCUUCGGUGGCGCGAUCGCGCCAACGUUCGCAACUAUGACACGCAAAACGCGUGCUCCGUUGAAUGGAGUUUAUCAUG [C14A A91C U104G],≤ -4.2
7,GGAUCUUCUCGAUAUUACAAAAAAGACAAAUCUGCCACAAAGCUUGAGAGCAUCUUCGGAUGCAGAGGCGGCAGCCUUCGGUAGCGCGAUAGGGUCAUCGUUCUCAAGUAUGACACGCAAAACGCGUGCUCCGUUGAAUGGAGUUUAUCAUG [C14A A16U G83A C93G C95U A98U C108G],≤ -4.2
8,GGAUCUUCUCGAUAUAACAUAAACGACAAAUCUGCCACAAAGCUUGAGAGCAUCUUCGGAUGCAGAGGCGGCAGCUUUCGGUGGCGCGAUAGCGCCAACGUUCUCAACUAUGACACGCAAAACGCGUGCUCCGUUGAAAGGAGUUUAUCAGG [C14A A20U A24C C76U U139A U151G],≤ -4.2
9,GGAUCUUCUCGAGCUAACAAAAAAGACAAAUCUGCCACAAAGCUUGAGAGCAGCUUCGGAAGCAGAGGCGGCAGCCUUCGGUGGCGCGAUAGCGCCAACGUUCUCAACUAUGACACGCAAAACGCGUGCUCCGUUGAAUGGAGUUUAUCAUG [U13G U53G U61A],≤ -4.2
10,GGAUCUUCUCGAUAUAACAAAAAAGACAAAUCUGCCUCAAAGCUUGAGAGCGUCUUCGGAUGCAGAGGCGGCAGCCUUCGGUAACGCGAUAGCGCCAACGUUCUCAACUAUGACUCGCAAAACGCGUGCUCCGUUGAAUGGAGUUUAUCAUG [C14A A37U A52G G83A G84A A115U],≤ -4.2
11,GGAUCUUCUCGAUAUAACAAAAAAGACAAAUCUGCCACAAAGCUUGAGAGCGUCGUCGGAUGCAGAGGCGGCAGCCUUCGGUGGCGCGAUAGCGCCAAUGUUCUCAACUAUGACACGCAAAACGCGUGCUCCGUUGAAUGGAGUUUAUCAUG [C14A A52G U55G C99U],-3.48
12,GGAUCUUCUCGAUAUAACAAAAAAGACAAUUCUGCCACAAAGCUUGAGUGCAUCUACGGAUACAGAGGUGGCAGCCUUCGGUGGCGCGAUAGCGCCAACGUUCUCAACUAUGACACGCAAAACGCGUGCUCCGUUGAACGGAGUUUAUCAGG [C14A A30U A49U U56A G62A C69U U139C U151G],≤ -4.2
13,GGAUCUUCUCGAUAUAACAAAGAAGACAAAUCUGCCACAAAGCUUGAGAGCAUCUUCGGAUGCAGAGGCGGCAGCUUUCGGUGGUGCGAGAGCGCCAACGUUCUCAACUAUGACACGCAAAACGCGUGCUCCGUUGAAUGGAGUUUAUCAUG [C14A A22G C76U C85U U90G],≤ -4.2
14,GGAUCUUCUCGAUAUAACAAAAAAGACAAAUCUGCCACAAAGCUUGAGUGCCUCUUCGGAUGCAGAGGGGACUGCCUUCGGUGACGCGAUAGCGCCAACGUUCUCAACUAUGACACGCAAAACGCGUGCUCCGUUGAAUGGAGUUUAUCAUG [C14A A49U A52C C69G G71A A73U G84A],≤ -4.2
15,GGAUCUUCUCGAUAUAACAAAAAAGACACAUCUGCCACAAAGCUUGAGAGCAUCUUCGGAUGCAGAGGCGGCAGCCUUCGGUGGCGCGAUAGCGCGAACGUUCUCAACUAUGACACGCAAAACGCGUGCUCCGUUGAAUGGAGUUUAUCUUG [C14A A29C C96G A150U],≤ -4.2
16,GGAUCUUCUCGAUAUAACAAAAAAGACAAAUCUGCCACAAAGCUUGAGAGCAUCUUCGGAUGCAGAGGCGGCAGCCUUCGGUGGCGCGUUACCGCCAACGUUCUCAACAAUGACACGCAAAACGCGUGCUCCGUUGAAUCGAGUUUAUCAUG [C14A A89U G92C U109A G140C],≤ -4.2
17,GGAUCUUCUCGAGCUAACAAAAAAGACAAAUCAGCCACAAAGCUUGAGAGCAUCUUCGGAUGCAGAGGCGGCAGCCUUCGGUGGCGCGAUAGCGCCAAUGUUCUCAACUAUGACACGGAUAACGCGUGCUCCGCUGAAUGGAGUUUAUCAUG [U13G U33A C99U C118G A120U U134C],≤ -4.2
18,GGAUCUUCUCGAGCUAACAAAAAAGACAAAUCUGCCACAAAGCUUGAGAGCAUCGUCGGAUGCAGAGGCGGCAGCCUUCGGUGACGCGAUAGCGCCAACGUUCUGAACUACGACACGCAAAAAGCGUGCUCCGUUGAAUUGAGUUUAUCAUG [U13G U55G G84A C105G U111C C123A G140U],≤ -4.2
19,GGAUCUUCUCGAGCUAACAAAAAAGACAAAUCUGCCACAAAGCUAGAGAGCAUCAUCGGAUGCAGAGGCGGCAGCCUUCGGUGGCGAGAUAGCGCCAACGUUCUCAACUAUGACACGCAAAACGCGUGCUCCGUUGAAUGGAGUUAAUCAUG [U13G U45A U55A C87A U146A],≤ -4.2
